# Test results as given in publication PMC6465297.
# Sequences of proteins named here, by UniProt entry; tags and fusion partners are left off.
# UniProt Q4AC94: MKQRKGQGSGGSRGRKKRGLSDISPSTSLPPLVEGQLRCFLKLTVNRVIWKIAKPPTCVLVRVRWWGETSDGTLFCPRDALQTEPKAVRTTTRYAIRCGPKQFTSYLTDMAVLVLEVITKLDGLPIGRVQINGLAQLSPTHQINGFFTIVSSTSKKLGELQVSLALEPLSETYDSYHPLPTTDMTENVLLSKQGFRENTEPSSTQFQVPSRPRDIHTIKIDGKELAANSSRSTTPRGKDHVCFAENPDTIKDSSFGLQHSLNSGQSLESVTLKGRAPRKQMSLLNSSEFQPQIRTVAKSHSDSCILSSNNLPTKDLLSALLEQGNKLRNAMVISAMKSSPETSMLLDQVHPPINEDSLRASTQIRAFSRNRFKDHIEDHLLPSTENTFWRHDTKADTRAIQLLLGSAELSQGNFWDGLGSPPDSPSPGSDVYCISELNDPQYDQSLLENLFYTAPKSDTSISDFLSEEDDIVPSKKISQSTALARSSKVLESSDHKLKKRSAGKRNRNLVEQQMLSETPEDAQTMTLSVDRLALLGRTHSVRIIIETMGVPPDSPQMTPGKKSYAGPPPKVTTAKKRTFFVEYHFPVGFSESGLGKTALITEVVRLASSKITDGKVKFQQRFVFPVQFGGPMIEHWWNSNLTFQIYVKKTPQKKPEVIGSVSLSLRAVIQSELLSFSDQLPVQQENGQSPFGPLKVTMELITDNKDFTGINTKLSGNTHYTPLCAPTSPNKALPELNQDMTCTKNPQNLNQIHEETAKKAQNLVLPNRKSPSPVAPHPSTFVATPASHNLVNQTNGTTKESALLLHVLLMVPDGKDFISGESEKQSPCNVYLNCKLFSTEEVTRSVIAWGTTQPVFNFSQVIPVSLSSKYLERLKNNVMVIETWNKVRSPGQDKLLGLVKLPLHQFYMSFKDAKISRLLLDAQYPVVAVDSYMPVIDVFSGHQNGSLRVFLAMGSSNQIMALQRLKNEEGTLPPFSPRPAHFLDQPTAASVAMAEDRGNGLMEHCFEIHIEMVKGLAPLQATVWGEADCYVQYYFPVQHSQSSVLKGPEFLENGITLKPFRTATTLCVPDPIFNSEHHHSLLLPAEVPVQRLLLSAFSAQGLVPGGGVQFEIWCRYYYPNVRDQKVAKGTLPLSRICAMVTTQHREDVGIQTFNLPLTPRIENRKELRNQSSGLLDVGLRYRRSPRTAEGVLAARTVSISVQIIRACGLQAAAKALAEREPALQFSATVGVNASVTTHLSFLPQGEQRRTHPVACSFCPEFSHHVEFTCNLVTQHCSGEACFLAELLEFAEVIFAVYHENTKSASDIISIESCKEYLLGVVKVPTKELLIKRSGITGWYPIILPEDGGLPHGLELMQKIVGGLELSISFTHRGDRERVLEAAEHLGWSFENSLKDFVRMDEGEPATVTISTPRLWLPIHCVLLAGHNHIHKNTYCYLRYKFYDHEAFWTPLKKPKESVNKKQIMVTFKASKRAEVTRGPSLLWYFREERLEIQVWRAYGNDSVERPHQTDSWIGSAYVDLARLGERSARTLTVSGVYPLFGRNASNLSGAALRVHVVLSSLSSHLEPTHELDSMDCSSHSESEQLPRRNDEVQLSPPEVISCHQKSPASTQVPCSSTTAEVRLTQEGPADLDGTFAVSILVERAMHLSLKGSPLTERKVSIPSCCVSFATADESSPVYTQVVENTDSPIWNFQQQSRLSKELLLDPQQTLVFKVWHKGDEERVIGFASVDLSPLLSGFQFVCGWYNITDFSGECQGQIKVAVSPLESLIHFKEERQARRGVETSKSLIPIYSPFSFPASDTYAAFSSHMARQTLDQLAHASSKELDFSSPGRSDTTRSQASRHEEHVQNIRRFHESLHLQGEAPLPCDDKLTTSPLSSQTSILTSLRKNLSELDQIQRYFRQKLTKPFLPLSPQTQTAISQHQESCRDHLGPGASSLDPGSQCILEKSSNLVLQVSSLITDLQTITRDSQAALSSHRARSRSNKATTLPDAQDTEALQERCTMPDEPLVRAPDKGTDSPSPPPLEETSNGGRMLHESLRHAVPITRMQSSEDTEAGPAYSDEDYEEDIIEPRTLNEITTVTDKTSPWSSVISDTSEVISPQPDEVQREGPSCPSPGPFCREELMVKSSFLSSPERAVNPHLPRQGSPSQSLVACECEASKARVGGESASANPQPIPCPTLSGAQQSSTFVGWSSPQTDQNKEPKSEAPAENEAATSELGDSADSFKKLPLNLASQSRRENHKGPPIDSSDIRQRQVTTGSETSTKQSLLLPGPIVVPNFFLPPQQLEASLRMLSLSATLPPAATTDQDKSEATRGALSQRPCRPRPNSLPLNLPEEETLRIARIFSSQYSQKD
# Residue numbers refer to the chain shown, from its start. Numbers in names are those of the source. No constants are given. Whether binding was seen depends on the method and setting. Binding seen in cells or lysates may run through a third protein. Some binding calls cover weakened binding; strength is not graded here. Where a sequence is shown, tags or fusion partners need not be part of it.
# B1: CEP120-myc (aa 416–986) (domain or fragment, UniProt Q8N960 416-986)
# chain: NPKASSSVPASLAQLVTTSNASEVASGQKIAVPATSHHFCFSIDLRSIHALEIGFPINCILRYSYPFFGSAAPIMTNPPVEVRKNMEVFLPQSYCAFDFATMPHQLQDTFLRIPLLVELWHKDKMSKDLLLGIARIQLSNILSSEKTRFLGSNGEQCWRQTYSESVPVIAAQGSNNRIADLSYTVTLEDYGLVKMREIFISDSSQGVSAVQQKPSSLPPAPCPSEIQTEPRETLEYKAALELEMWKEMQEDIFENQLKQKELAHMQALAEEWKKRDRERESLVKKKVAEYTILEGKLQKTLIDLEKREQQLASVESELQREKKELQSERQRNLQELQDSIRRAKEDCIHQVELERLKIKQLEEDKHRLQQQLNDAENKYKILEKEFQQFKDQQNNKPEIRLQSEINLLTLEKVELERKLESATKSKLHYKQQWGRALKELARLKQREQESQMARLKKQQEELEQMRLRYLAAEEKDTVKTERQELLDIRNELNRLRQQEQKQYQDSTEIASGKKDGPHGSVLEEGLDDYLTRLIEERDTLMRTGVYNHEDRIISELDRQIREILAKSNASN
# B2: CEP120-myc I975S mutant (protein, UniProt Q8N960 1-986)
# chain: MVSKSDQLLIVVSILEGRHFPKRPKHMLVVEAKFDGEQLATDPVDHTDQPEFATELAWEIDRKALHQHRLQRTPIKLQCFALDPVTSAKETIGYIVLDLRTAQETKQAPKWYQLLSNKYTKFKSEIQISIALETDTKPPVDSFKAKGAPPRDGKVPAILAGLDPRDIVAVLNEEGGYHQIGPAEYCTDSFIMSVTIAFATQLEQLIPCTMKLPERQPEFFFYYSLLGNDVTNEPFNDLINPNFEPERASVRIRSSVEILRVYLALQSKLQIHLCCGDQSLGSTEIPLTGLLKKGSTEINQHPVTVEGAFTLDPPNRAKQKLAPIPVELAPTVGVSVALQREGIDSQSLIELKTQNEHEPEHSKKKVLTPIKEKTLTGPKSPTVSPVPSHNQSPPTKDDATESEVESLQYDKDTKPNPKASSSVPASLAQLVTTSNASEVASGQKIAVPATSHHFCFSIDLRSIHALEIGFPINCILRYSYPFFGSAAPIMTNPPVEVRKNMEVFLPQSYCAFDFATMPHQLQDTFLRIPLLVELWHKDKMSKDLLLGIARIQLSNILSSEKTRFLGSNGEQCWRQTYSESVPVIAAQGSNNRIADLSYTVTLEDYGLVKMREIFISDSSQGVSAVQQKPSSLPPAPCPSEIQTEPRETLEYKAALELEMWKEMQEDIFENQLKQKELAHMQALAEEWKKRDRERESLVKKKVAEYTILEGKLQKTLIDLEKREQQLASVESELQREKKELQSERQRNLQELQDSIRRAKEDCIHQVELERLKIKQLEEDKHRLQQQLNDAENKYKILEKEFQQFKDQQNNKPEIRLQSEINLLTLEKVELERKLESATKSKLHYKQQWGRALKELARLKQREQESQMARLKKQQEELEQMRLRYLAAEEKDTVKTERQELLDIRNELNRLRQQEQKQYQDSTEIASGKKDGPHGSVLEEGLDDYLTRLIEERDTLMRTGVYNHEDRIISELDRQSREILAKSNASN
# B3: CEP120-myc L712F mutant (protein, UniProt Q8N960 1-986)
# chain: B2 chain with L712F, S975I
# B4: CEP120-myc L726P mutant (protein, UniProt Q8N960 1-986)
# chain: B2 chain with L726P, S975I
# Target: full-length GFP-C2CD3 (human) (UniProt Q4AC94)
# Experiment: co-IP; HEK293T cells co-transfected with the GFP- and myc-tagged constructs; lysates 24 h after transfection immunoprecipitated (anti-GFP antibody in the mapping) and immunoblotted
row,binding,Binder
1,binds,B1
2,binds weakly,B2
3,binds,B3
4,binds,B4
